± gives the standard deviation of the averaged measurements. In all, about 33,000 sequences were measured (“E-score (dimensionless, -0.5 to 0.5)”: median about -0.046, highest 2% from about 0.36 on). This is one part of the list.
Each sequence was assayed on T1, SpTbr T-box DNA-binding domain (GST fusion) (assay: PBM E-score of 8-mer (E-score (dimensionless, -0.5 to 0.5)); Tbr is Tbrain of the sea star Patiria miniata (Pm) or the sea urchin Strongylocentrotus purpuratus (Sp); higher = stronger binding preference; most listed sequences are background and not binding sites). Settings: the construct has about 5 more residues each side.
T1 sequence: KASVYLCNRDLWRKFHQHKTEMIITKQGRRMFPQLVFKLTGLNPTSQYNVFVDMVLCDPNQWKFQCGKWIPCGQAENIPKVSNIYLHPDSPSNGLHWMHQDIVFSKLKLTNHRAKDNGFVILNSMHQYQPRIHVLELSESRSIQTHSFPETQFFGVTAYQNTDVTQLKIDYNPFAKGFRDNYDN
Protocol: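 Universal protein-binding microarray (Agilent AMADID 016060, 60-bp probes with a 35-bp variable region) incubated with 200 nM GST-fused Strongylocentrotus purpuratus Tbr T-box DNA-binding domain (residues 362-554) in PBS pH 7.5. Scored for every ungapped 8-mer (given with its reverse complement) as E-score (range -0.5 to 0.5; >0.45 counts as bound) and Z-score of median probe intensity. Two replicate arrays (datasets 1 and 2).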
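Note: protein at 200 nM in PBS on universal double-stranded arrays.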

Sequence | PBM E-score of 8-mer
CCTACTTA | 0.134 ± 0.0065
ACAGACAA | 0.0566 ± 0.0091
AGACGGGC | -0.0517 ± 0.011
AAGTCTCT | -0.0296 ± 0.026
ATCTACAG | -0.159 ± 0.026
CAATGTGA | 0.262 ± 0.026
GAGCTCAC | 0.0227 ± 0.09
ACGGATTC | -0.0948 ± 0.14
TATGCGGA | -0.318 ± 0.027
CGCACGCA | 0.216 ± 0.023
CAGGGACA | -0.0686 ± 0.058
GTATTTCA | -0.18 ± 0.08
AGCTCGGA | -0.0281 ± 0.0059
CACCCCAC | 0.293 ± 0.038
AGTGTTGG | 0.3684 ± 7.1e-06
GAGGCGCC | 0.21 ± 0.027
CGTTGTTA | 0.142 ± 0.034
CGAGTACG | 0.0963 ± 0.021
CAACTACG | -0.0286 ± 0.048
TAGGAAGA | -0.271 ± 0.03
AAATATCG | -0.0103 ± 0.087
CGCTGGGA | 0.061 ± 0.053
ACCAAGGT | 0.0533 ± 0.032
TCTGTAAA | 0.00502 ± 0.046
ACCATCCT | -0.18 ± 0.029

Sequence | PBM E-score of 8-mer
GTCTCCTA | -0.236 ± 0.0029
CTGAGGCC | -0.225 ± 0.026
TGCTAGAA | 0.0549 ± 0.044
ACAAAGAA | -0.0922 ± 0.08
GAATAAGC | -0.0679 ± 0.006
GATCGGAA | 0.0351 ± 0.036
ATTAACTG | 0.0795 ± 0.052
GATAATGC | 0.0396 ± 0.012
CAAACCCC | -0.239 ± 0.018
CGTGACGC | 0.192 ± 0.033
AATCAGCT | -0.261 ± 0.033
AACAGCGT | -0.0214 ± 0.058
CGAATAAA | 0.117 ± 0.05
CGAGGCAA | -0.0874 ± 0.02
TCACTCGA | 0.0732 ± 0.022
AGGCACAG | 0.0232 ± 0.016
ATCGGTAA | -0.00135 ± 0.021
AGCCTTGA | -0.142 ± 0.019
AGTTGCTA | 0.239 ± 0.042
CAGACACA | 0.254 ± 0.026
CTAGGGTC | -0.232 ± 0.069
CACGGGCG | -0.00855 ± 0.048
ACAAAAAT | -0.153 ± 0.032
AACACCAT | 0.377 ± 0.021
AGAAGTGA | 0.289 ± 0.014

Sequence | PBM E-score of 8-mer
ATCTTAGC | 0.0587 ± 0.0046
AACGCAAA | 0.0563 ± 0.092
ATAACGCG | 0.24 ± 0.012
GCATTAAA | -0.213 ± 0.011
CGGCGTAC | -0.177 ± 0.071
GATAGCGC | 0.2908 ± 0.0026
AGATGGCC | -0.308 ± 0.011
ACTACTCG | -0.0412 ± 0.033
CCGAAGGC | -0.0425 ± 0.036
GGATGAAA | -0.2302 ± 0.0016
CATGGAAC | -0.212 ± 0.0075
CTTCTAGC | 0.0222 ± 0.015
CCACTGCC | -0.0765 ± 0.0097
CTCAAGAA | -0.0625 ± 0.0062
AAGCCGCC | 0.0307 ± 0.071
ACTAAGGG | -0.0651 ± 0.032
AGAGTACC | -0.133 ± 0.0056
AGCAGTTA | 0.0617 ± 0.0055
CTTCTCTA | -0.233 ± 0.03
AATACCTC | 0.0526 ± 0.03
CATAGTCC | -0.201 ± 0.065
AGAACCAT | -0.0566 ± 0.0026
GATCTGCA | 0.0461 ± 0.029
TAATTTAA | -0.13 ± 0.05
ACGCAAGC | -0.101 ± 0.061

Sequence | PBM E-score of 8-mer
TCTTCTAA | -0.0518 ± 0.034
ATGATCAC | 0.1861 ± 0.0015
AACATATT | 0.0877 ± 0.062
GGTCATTA | -0.167 ± 0.028
CACCGTGA | 0.251 ± 0.026
ACGCCGCT | -0.0528 ± 0.055
ACCCGCAG | -0.121 ± 0.017
AAACCTAC | -0.181 ± 0.039
ACGGAAGT | 0.0353 ± 0.024
CGGATGTC | -0.0222 ± 0.052
CCGTCACC | 0.345 ± 0.011
ACATCAGG | -0.239 ± 0.0075
AGAGGGCT | -0.165 ± 0.024
AACGTTCT | -0.0291 ± 0.0098
ATGCCATA | -0.0797 ± 0.018
ATTTAGGG | -0.217 ± 0.011
AGGATACT | -0.149 ± 0.052
ACGCATTA | 0.162 ± 0.012
AGAATAGA | -0.133 ± 0.069
ACCAGCAT | -0.156 ± 0.068
ATTGTTTG | 0.0143 ± 0.016
TCAGTTCA | -0.187 ± 0.037
AACCCTGT | -0.103 ± 0.012
ACTTGCAA | 0.292 ± 0.01
AAGGTAAC | 0.0373 ± 0.0052

Sequence | PBM E-score of 8-mer
TGGGCACA | -0.0899 ± 0.027
ATGGGCAA | -0.163 ± 0.025
GATTGCTA | 0.0673 ± 0.018
AGCCCTTG | -0.143 ± 0.007
TAGATCGA | -0.213 ± 0.01
GGGAGAAC | 0.0492 ± 0.0062
AAAAAAGC | -0.111 ± 0.066
CACTATCC | -0.0307 ± 0.042
CCGATGGC | 0.00432 ± 0.043
GATCGGCA | 0.0183 ± 0.072
TCGACAGA | 0.207 ± 0.017
CGCGACCC | 0.21 ± 0.048
TGCTAAAA | 0.28 ± 0.041
CAATTCTG | 0.0621 ± 0.042
GCTGAATA | -0.119 ± 0.038
AATGGTCA | 0.00929 ± 0.068
ATAATTTA | 0.0201 ± 0.038
ACGTCCAG | -0.0813 ± 0.0011
AGAAGACT | -0.285 ± 0.046
CATTTGCG | 0.0339 ± 0.023
AGTGCGAA | 0.47263 ± 0.00019
CTAGCCAA | -0.054 ± 0.036
AATACTCT | -0.0612 ± 0.0012
ATCCCTCA | -0.033 ± 0.011
TACGTTAA | 0.00349 ± 0.068

Sequence | PBM E-score of 8-mer
AGAATCTC | -0.09 ± 0.0084
CGTACCCA | -0.102 ± 0.027
GCTCATTA | -0.0876 ± 0.014
ATTACGGC | -0.0536 ± 0.027
GTTGGAAA | -0.00285 ± 0.039
ATAGGAAC | -0.223 ± 0.037
GGTATACA | 0.123 ± 0.048
CCGGCCCG | -0.23 ± 0.028
AAACAGAG | -0.054 ± 0.018
ATACCTTG | -0.0457 ± 0.019
AGGCATAT | -0.271 ± 0.0056
GGGTTCCA | -0.161 ± 0.0024
ACTGCAGG | -0.128 ± 0.0053
GAGCCCTC | -0.109 ± 0.0089
GTGCTATA | 0.0851 ± 0.12
CTTCAAGC | -0.184 ± 0.079
CAGAGTTA | 0.0747 ± 0.026
CGACCGTA | -0.191 ± 0.024
ACGATTGA | 0.0613 ± 0.013
CCACCCGA | 0.172 ± 0.083
CCCATGGA | -0.276 ± 0.0047
CATTGAAA | -0.151 ± 0.0056
GCCGCTAA | 0.101 ± 0.035
AGCTGTAC | -0.0895 ± 0.0019
ATTCATGG | -0.0573 ± 0.016

Sequence | PBM E-score of 8-mer
CAATTCTA | -0.0485 ± 0.031
ACCTGCAA | 0.175 ± 0.031
CGCCAAGA | 0.0666 ± 0.023
ATACATGA | -0.0733 ± 0.02
AAGTTCTA | -0.182 ± 0.063
CGACCTTA | -0.237 ± 0.008
AATAGGTA | -0.0758 ± 0.075
AAAACCAT | -0.0372 ± 0.053
AGATGTGC | 0.161 ± 0.011
TTATTGAA | -0.142 ± 0.024
CGGTGGCA | 0.186 ± 0.053
GCACCACA | 0.191 ± 0.056
TAACGAGA | 0.0423 ± 0.028
AGCACCAG | 0.0212 ± 0.037
CCGCCTCC | 0.0266 ± 0.06
ACGCCAGG | 0.122 ± 0.0013
AACTTACT | -0.137 ± 0.088
GGAATGCC | -0.187 ± 0.06
TCATCTCA | 0.0482 ± 0.019
CCGATGTC | -0.119 ± 0.12
CAGCTAAC | 0.101 ± 0.026
ACACTGGG | -0.0645 ± 0.024
ATATCTTA | 0.0462 ± 0.021
ACCTAGGA | 0.0169 ± 0.036
GCCGGCAA | -0.0272 ± 0.043

Sequence | PBM E-score of 8-mer
AAAGGGAG | -0.0934 ± 0.0065
CTATTGTA | -0.333 ± 0.0049
CGCTTGTA | -0.0247 ± 0.089
GAGTCACC | 0.0765 ± 0.03
AATACGGA | -0.171 ± 0.016
GGCGCCTA | 0.0174 ± 0.061
CTTTGTTC | -0.131 ± 0.026
AACGAGAG | -0.146 ± 0.019
TAGAGCTA | -0.135 ± 0.041
AGATTAAT | -0.0533 ± 0.075
CCCACGGA | -0.334 ± 0.046
AAGGGTGT | 0.383 ± 0.015
ATGGTACG | -0.179 ± 0.089
GGTCTCAC | 0.3458 ± 0.0029
AATTCGTG | -0.0695 ± 0.04
ATGCACAC | 0.231 ± 0.05
CATGATAG | -0.193 ± 0.025
CAAAGCGA | -0.0477 ± 0.082
CCTTGCTC | 0.0297 ± 0.044
CGAACTTC | -0.0592 ± 0.019
CTAAGCGC | -0.0678 ± 0.024
CAGCCTGC | -0.0414 ± 0.014
AAGGACGG | -0.342 ± 0.054
ACAAGCAA | 0.0484 ± 0.082
CCGTTCCG | -0.176 ± 0.021

Sequence | PBM E-score of 8-mer
CGATGTAC | -0.0535 ± 0.057
ACCCCAGA | -0.00795 ± 0.0064
AGCTGCCG | 0.0367 ± 0.019
AGACCCAG | -0.1 ± 0.012
GTCTACAA | -0.0203 ± 0.07
ACCCGCCA | 0.16 ± 0.057
CTCGGACC | -0.177 ± 0.011
GAATAATC | -0.25 ± 0.026
CAGATTAA | -0.163 ± 0.099
AACCGTAA | -0.129 ± 0.067
GTCTGAAA | -0.0236 ± 0.086
GATTATAC | -0.0275 ± 0.013
AAGCCAGG | -0.254 ± 0.02
ATCCCCGC | -0.0328 ± 0.091
CTACTCGC | 0.204 ± 0.0062
CCGACCAG | -0.235 ± 0.0047
TGCTGCAA | -0.0593 ± 0.055
ATAGGTGA | 0.284 ± 0.032
CAGAGCAA | -0.326 ± 0.042

From the supplement of paper PMC4166925
